Laboratory results: PMC10385824, “Antiproliferative and Tubulin-Destabilising Effects of 3-(Prop-1-en-2-yl)azetidin-2-Ones and Related Compounds in MCF-7 and MDA-MB-231 Breast Cancer Cells” (Pharmaceuticals, 2023)
Where two headings read alike, the source gives them in different places.

Key:
[1] = system: HL-60 human leukaemia cell line; assay: cell viability assay; type: cell-based
Experimental: (§1) Cells were grown in 96-well plates and treated with (A) CA-4 or (B) β-lactam compound 9q at 0.001–50 μM for 72 h. Cell viability was expressed as a percentage of vehicle control (ethanol 1% (v/v))-treated cells. The values represent the mean ± S.E.M. for three independent experiments performed in triplicate.
(§2) HL-60 cells were originally obtained from the ECACC.

[2] = system: SW-480 colon adenocarcinoma cell line; assay: cell viability assay; type: cell-based; settings: Homo sapiens, SW480
Experimental: as §1, §2

[3] = HPLC stability under degradation conditions (acid, alkali, heat, light, oxidation); settings: for compound remaining: 4 h
[4] = system: HT-29 human colorectal adenocarcinoma cell line; assay: cell viability assay; type: cell-based; settings: HT-29, 72 h
Experimental: as §1, §2

[5] = AlamarBlue cell viability in non-tumorigenic cells; type: cell-based; settings: human, HEK-293T cells
Experimental: as §2
Figure 4 Antiproliferative activity of β-lactam compound 9q in human breast cancer MCF-7 cells and non-tumorigenic human embryonic kidney HEK-293T cells. MCF-7 and HEK-293T cells were grown in 96-well plates and treated with compound 9q at 0.1, 1 and 10 μM for 72 h.

MCF-7 cells = assay: Cell cycle analysis, propidium iodide flow cytometry; type: cell-based, human; settings: for sub-G0G1 (proapoptotic effect): vehicle 6%
Experimental: MCF-7 cells were treated with compound 9q (at concentration of 50 nM and 500 nM) and incubated for 72 h. Cells (adherent and detached) were collected, trypsinised and centrifuged (800× g, 15 min). […] Fixed cells were centrifuged (800× g, 15 min) and stained with PI (50 μg/mL) containing DNase-free RNase A (50 μg/mL) at 37 °C for 30 min. The DNA content of the cells (10,000 cells/experimental group) was recorded by flow cytometry at 488 nm using a FACSCalibur flow cytometer (BD Biosciences, San Jose, CA, USA) and analysed using cellQuest software (BD Biosciences, San Jose, CA, USA).
MCF-7 cells were treated with either vehicle (0.1% ethanol (v/v)) or 9q (50 nM and 500 nM) for 24 h, 48 h and 72 h. The MCF-7 cells were then fixed and stained with propidium iodide, and the distribution was analysed by flow cytometry. Cell cycle analysis was obtained from histograms of gated counts per DNA area (FL2-A). The number of cells with <2N (sub-G1) (A), 2N (G0G1) (B) and 4N (G2/M) (C) DNA content was determined using CellQuest software. The results obtained represent the mean of three independent experiments performed.

MCF-7 = settings: MCF7; one dose 10 µM, 48 h

## COc1ccc(/C=C\c2cc(OC)c(OC)c(OC)c2)cc1O [CA-4, Combretastatin A-4, reference compound]
[1]; read-out: IC50
  IC50: 2 nM
[2]; SW-480, read-out: IC50
  IC50: 7 nM

## C=CCC1C(=O)N(c2cc(OC)c(OC)c(OC)c2)C1c1ccc(OC)c(O)c1 (centres unmarked) [10p, 4-(3-Hydroxy-4-methoxyphenyl)-1-(3,4,5-trimethoxyphenyl)-3-allylazetidin-2-one]
[3]; 1M HCl added to stock solution, % Remaining, 1M HCl (0.1 mL, 20 °C, 4h)
  remaining at 4 h: 91.3%
[3]; 1M HCl added to stock solution, % Remaining, 1M HCl (0.2 mL, 50 °C, 4h)
  remaining at 4 h: 91.3%
[3]; 1M NaOH added to stock solution, % Remaining, 1M NaOH (0.1 mL, 20 °C, 4h)
  remaining at 4 h: 95.2%
[3]; 1M NaOH added to stock solution, % Remaining, 1M NaOH (0.2 mL, 50 °C, 4h)
  remaining at 4 h: 82.1%
[3]; 30% H2O2 added to stock solution, % Remaining, Hydrogen peroxide (30 % H2O2, 0.2 mL), 20 °C, 6h
  remaining at 6 h: 79%
[3]; UV light
  compound remaining: 100%
[3]; acidic (0.1 M HCl)
  compound remaining: 91%
[3]; alkaline (0.1M NaOH)
  compound remaining: 95%
[3]; heat (60 °C)
  compound remaining: 100%
[3]; oxidative (3% H2O2)
  compound remaining: 79%
[3]; solution in acetonitrile:water 80:20, daylight, % Remaining, Daylight (acetonitrile (80%):water (20%) 13 days)
  remaining at 312 h, 0.5 mg/mL: 100%
[3]; stock solution in acetonitrile:water 80:20, heated, % Remaining, 80 °C (heating block, 5 h)
  remaining at 5 h, 0.5 mg/mL: 100%

## C=C(C)C1C(=O)N(c2cc(OC)c(OC)c(OC)c2)C1c1ccc(OC)c(O)c1 (centres unmarked) [9q, 4-(3-Hydroxy-4-methoxyphenyl)-1-(3,4,5-trimethoxyphenyl)-3-(prop-1-en-2-yl)azetidin-2-one]
[1]
  IC50: 15 nM
[4]
  IC50: 711 nM
[2]
  IC50: 8 nM
[5]; 0.1 μM
  viability at 72 h, 0.1 µM: 83%
[5]; 1 μM
  viability at 72 h, 1 µM: 60%
[5]; 10 μM
  viability at 72 h, 10 µM: 50%
MCF-7 cells; 50 nM, 24 h
  G0G1 cell population: 10%
MCF-7 cells; 50 nM, 48 h
  G0G1 cell population: 10%
MCF-7 cells; 50 nM, 72 h
  G0G1 cell population: 8%
  sub-G0G1 (proapoptotic effect): 10%
MCF-7 cells; 500 nM, 24 h
  G0G1 cell population: 7%
  G2/M population: 85%
MCF-7 cells; 500 nM, 48 h
  G0G1 cell population: 7%
  G2/M population: 81%
MCF-7 cells; 500 nM, 72 h
  G0G1 cell population: 8%
  G2/M population: 70%
  sub-G0G1 (proapoptotic effect): 19%
MCF-7 cells; 50 μM (so in the source), 24 h
  G2/M population: 72%
MCF-7 cells; 50 μM (so in the source), 48 h
  G2/M population: 69%
MCF-7 cells; 50 μM (so in the source), 72 h
  G2/M population: 70%
MCF-7
  % Growth: 15.44%
